# Measurements: PubChem BioAssay (NCATS)
# “And” between values parts separate entries of the source, which are not always exact repeats. Equal values may be shown once. The shares of active, inactive and inconclusive entries below differ from those in the screen. Where the call is inconclusive, the potency comes from a doubtful curve fit. The source made the active and inactive calls. Calls follow the shape of the dose curve; as a rule, active = well fitted inhibition curve with a large enough effect; inconclusive = small, poorly fitted or top-dose-only effect; inactive = no such curve, though single readings can be large or run the other way.
# Molecular target: Cytochrome P450 2C9 (Homo sapiens) (UniProt P11712)
# Assay: qHTS Assay for Inhibitors and Substrates of Cytochrome P450 2C9 (AID 883); also: nearly all actives have a fitted effect of over 60% in size
# Conditions: recombinant CYP2C9, luciferin-H luminescence, 60 min; activity change, negative = inhibition: at 11.4 µM (top of the series) unless noted
# Method in brief: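 A luminogenic readout tracked human CYP2C9 (10nM) converting deoxyluciferin (100uM, at KM) in 25mM KPO4 during 60 min at 37C with regenerated NADPH. Values normalized to 57uM sulphaphenazole as complete inhibition.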
# % is scaled to controls: 0 for no effect and ±100 for the full control effect; potency is read from the fitted curve at half-maximal effect; tags tell the direction and shape of the fitted curve.
# Chain of UniProt P11712 (P11712 whole entry, looked up): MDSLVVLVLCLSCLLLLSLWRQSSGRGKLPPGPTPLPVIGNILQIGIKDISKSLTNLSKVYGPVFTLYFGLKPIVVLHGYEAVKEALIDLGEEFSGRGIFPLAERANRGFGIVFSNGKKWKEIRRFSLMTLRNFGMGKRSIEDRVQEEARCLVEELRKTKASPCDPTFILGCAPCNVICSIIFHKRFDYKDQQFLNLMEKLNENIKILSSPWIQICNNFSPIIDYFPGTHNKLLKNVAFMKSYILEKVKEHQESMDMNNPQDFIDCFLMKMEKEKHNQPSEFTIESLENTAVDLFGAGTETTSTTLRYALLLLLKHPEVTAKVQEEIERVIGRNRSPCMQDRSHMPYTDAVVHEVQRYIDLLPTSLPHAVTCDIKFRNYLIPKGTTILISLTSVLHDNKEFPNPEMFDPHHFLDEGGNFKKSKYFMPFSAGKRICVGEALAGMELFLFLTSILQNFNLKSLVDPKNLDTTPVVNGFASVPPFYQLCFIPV
Compound,Potency,"activity change, negative = inhibition"
CC(=O)OC[C@@H]1O[C@H](CCO/N=C(\C)CCN2CCc3nc(-c4ccccc4)c(-c4ccccc4)cc3C2)C=C[C@@H]1OC(C)=O,"inconclusive: 3.16 µM [inhibitor, partial curve]",–
COC(=O)[C@@H]1CC[C@H](C)[C@@H](c2ccc(C)cc2)N1C(=O)c1ccc(/C=N\O[C@@H](C)CN2CCCCc3nc(C)c(C)cc32)cc1,"inconclusive: 3.16 µM [inhibitor, partial curve, poor fit]",–
CCN1C(C)=C(C(=O)OC)C(c2ccccc2)N2C(=O)[C@](O)(C(=O)OC)C(c3ccccc3)C(C(=O)c3ccccc3)=C12 (stereo not given in full),–,inactive: -6.3%
CCOC(=O)OCC1C=C[C@H](c2cc(-c3ccccc3)ccc2O)C(c2ccc(C(C)=O)cc2)O1 (stereo not given in full),active: 0.316 µM,–
O=C(/C=C\c1ccc2c(c1)OCO2)c1ccc(F)cc1,"inconclusive: 1.58 µM [inhibitor, partial curve]",–
COc1cccc([C@@H]2Oc3ccc(OC)cc3/C(=N/OC[C@@H](O)COCc3ccco3)[C@@H]2O)c1,"inconclusive: 3.16 µM [inhibitor, partial curve]",–
CC(C)[C@@H](CC(=O)N[C@@H]1CCNC[C@H]1C(=O)N[C@H](CC(=O)N[C@@H](CCC(=O)O)CC(=O)O)Cc1c[nH]c2ccccc12)NC(=O)C[C@H](Cc1ccccc1)NC(=O)[C@@H]1CNCC[C@H]1N,–,inactive: 8.07% [at 57.1 µM]
c1cncc(CNc2cc(-c3ccc4c(c3)OCO4)ncn2)c1,"inconclusive: 0.316 µM [inhibitor, partial curve]",–
CC12C=C(/C=C/c3ccc(F)cc3)C(C)(C1)C(c1ccc(F)cc1)CC2=O (stereo not given),–,inactive: -24.9%
COC(=O)C1=C(C)N(Cc2ccccc2)C2=C3C(=O)OCCC3[C@@](O)(C(=O)OC)C(=O)N2C1c1ccccc1 (stereo not given in full),–,inactive: 6.64%
COc1ccc(O[C@H]2C=C[C@@H](c3ccccc3)O[C@@H]2CO/N=C(\C)CCN2CCCc3nc(C)c(C)cc32)cc1,"inconclusive: 3.16 µM [inhibitor, single point]",–
COC(=O)NC(CC(C)=O)c1ccccc1 (stereo not given),–,inactive: -12.7%
C=CCOC(=O)C(C(C)=O)C(NC(=O)OC)c1cccc(C)c1 (stereo not given),–,inactive: 56.3%
COC(=O)[C@@]1(Cc2ccc(OC)cc2)[C@H]2c3cc(C(=O)N4CCCC4)n(CCc4c[nH]c5ccc(O)cc45)c3C[C@H]2CN1C(=O)c1ccccc1,active: 3.16 µM,–
BrC(c1cccc2ccccc12)c1cccc2ccccc12,active: 3.16 µM,–
C=C(C)C(O)/C=C/c1ccccc1OC (stereo not given),–,inactive: 28.6%
COc1ccc(OC2C(O)COC2/C=C/C#Cc2ccc(F)cc2F)cc1 (stereo not given),active: 2.51 µM,–
CCOC(=O)OCC1OC(C#Cc2ccc(C)cc2C)C=CC1OC(=O)OCC (stereo not given),–,inactive: -22.1%
CCC[C@@H]1C[C@@]1(CCC)C(NC(=O)c1cccs1)c1ccc(Cl)cc1 (stereo not given in full),"inconclusive: 5.01 µM [inhibitor, partial curve]",–
C/C(CCN1CCCc2nc(C)c(C)cc21)=N\O[C@@H](C)c1cc(-c2c(C)cc(C)cc2C)no1,"inconclusive: 3.16 µM [inhibitor, partial curve]",–

Compound,Potency,"activity change, negative = inhibition"
Cc1ccc(-c2nnc(-c3ccc4ccccc4c3)o2)cc1,"inconclusive: 5.01 µM [inhibitor, single point]",–
C=CCSc1nc2ccccc2c(=O)n1Cc1ccco1,"inconclusive: 3.98 µM [inhibitor, single point]",–
O=C(O)c1cscc1Cc1cccs1,–,inactive: 14.8%
O=C(O)c1ccc(SSc2ccc(C(=O)O)cn2)nc1,active: 1.58 µM,–
Cn1c(=O)c2[nH]c(SCCN3CCOCC3)nc2n(C)c1=S,"inconclusive: 6.31 µM [inhibitor, single point]",–
Oc1c(Br)cc(CN(Cc2cc(Br)c(O)c(Br)c2)C2CCCCC2)cc1Br,active: 2.51 µM,–
COC(=O)C/C=C\[C@@H](C)[C@@H](/C=N\OCC[C@H]1C=C[C@H](OC(C)=O)[C@@H](COC(C)=O)O1)NS(=O)(=O)c1ccc(C)cc1,"inconclusive: 5.01 µM [inhibitor, single point]",–
Cc1cccc2c1Oc1ccccc1[C@@H]2NC(=O)c1ccc([N+](=O)[O-])cc1,"inconclusive: 7.94 µM [inhibitor, single point]",–
N=C(N)SCc1ccc(Cl)cc1Cl (tested in a mixture with another compound),"inconclusive: 7.94 µM [inhibitor, single point]",–
O=S1(=O)[C@H]([C@H]2CC3c4ccccc4C2c2ccccc23)[C@@H](N2CCCCC2)[C@@H]1c1ccccc1,"inconclusive: 7.94 µM [inhibitor, single point]",–
O=C1CNCCCN2CCN(CCCNCC(=O)Nc3ccc(cc3)S(=O)(=O)c3ccc(cc3)NC(=O)CNCCCN3CCN(CCCNCC(=O)Nc4ccc(cc4)S(=O)(=O)c4ccc(cc4)N1)CC3)CC2,–,inactive: -16.9%
Cc1cc2c(nc1C)CCCN2C[C@H](O)CN1CCCc2nc(-c3ccc(Br)cc3)ccc21,"inconclusive: 3.98 µM [inhibitor, single point] and active: 2.51 µM",–
COC(=O)[C@@]1(Cc2ccc(OC)cc2)[C@H]2c3cc(C(=O)N4CCCC4)n(Cc4cc(F)cc5c4OCOC5)c3C[C@H]2CN1C(=O)c1ccccc1,active: 6.31 µM,–
COc1ccc(O[C@H]2C=C[C@@H](c3ccccc3)O[C@H]2CO/N=C\C[C@@H]2C=C[C@H](OC(C)=O)[C@H](COC(C)=O)O2)cc1,"inconclusive: 3.16 µM [inhibitor, partial curve]",–
O=C(O)c1cccc(SSc2cccc(C(=O)O)c2)c1,"inconclusive: 2 µM [inhibitor, single point]",–
CO[C@H]1COC(=O)C/C=C\[C@H](C)[C@@H](OC)COC(=O)[C@H](C)COC(=O)C/C=C\[C@@H]1C,–,inactive: 36.4%
COc1ccc2oc(-c3ccccc3)c(OC)c(=O)c2c1,active: 25.1 µM,–
O=c1cc(-c2cccc(O)c2)oc2cc(O)ccc12,active: 25.1 µM,–
COc1ccc(Oc2ncc3nc(-c4ccc(OC)cc4)c(=O)n(Cc4cccs4)c3n2)cc1,"inconclusive: 3.16 µM [inhibitor, full curve]",–
CC/C=C\CC[C@H](OC(=O)c1ccc(Br)cc1)C1=CCCCC1=O,"inconclusive: 3.16 µM [inhibitor, single point]",–
